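Briefly, cells in 96-well plates were exposed to five compound concentrations for 48 h, and endpoints were estimated by linear interpolation. Here, GI50 denotes the concentration required for 50% inhibition of growth.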 Some entries of the source have several records that differ or are many. The list is limited to them. An entry can have further records. For some of these results: Records of one sample usually come from different ranges of test concentrations, not given here; some values may only mark the edge of a range. For some of these results: Results that share an entry repeat one measurement (runs, samples, wells, individuals or studies). Marks in square brackets tell the records apart. A, B and so on number the origins entry by entry.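 TGI marks complete inhibition of growth.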
Assays:
Experiment in all cases: inhibition of tumour cell growth, NCI panel, 48 h
RPMI-8226 leukemia = test system: RPMI-8226 leukemia
HCT-116 colon = test system: HCT-116 colon
786-0 renal = test system: 786-0 renal
UACC-62 melanoma = test system: UACC-62 melanoma
EKVX NSCLC = test system: EKVX NSCLC
SW-620 colon = test system: SW-620 colon
SN12C renal = test system: SN12C renal
K-562 leukemia = test system: K-562 leukemia
HS 578T breast = test system: HS 578T breast
SF-539 CNS = test system: SF-539 CNS
OVCAR-8 ovarian = test system: OVCAR-8 ovarian
SNB-75 CNS = test system: SNB-75 CNS
SNB-78 CNS = test system: SNB-78 CNS
NCI/ADR-RES ovarian = test system: NCI/ADR-RES ovarian
LOX IMVI melanoma = test system: LOX IMVI melanoma
MCF7 breast = test system: MCF7 breast
UO-31 renal = test system: UO-31 renal
HOP-92 NSCLC = test system: HOP-92 NSCLC
IGROV1 ovarian = test system: IGROV1 ovarian
CAKI-1 renal = test system: CAKI-1 renal
HOP-18 NSCLC = test system: HOP-18 NSCLC
NCI-H522 lung = test system: NCI-H522 lung
HL-60(TB) leukemia = test system: HL-60(TB) leukemia
SF-295 CNS = test system: SF-295 CNS
HOP-62 NSCLC = test system: HOP-62 NSCLC
SR leukemia = test system: SR leukemia
MOLT-4 leukemia = test system: MOLT-4 leukemia
MDA-MB-435 = test system: MDA-MB-435
BT-549 breast = test system: BT-549 breast
U251 CNS = test system: U251 CNS
SF-268 CNS = test system: SF-268 CNS
KM12 colon = test system: KM12 colon

In the case of CN(C)c1ccc(/C=c2/c3cc(O)ccc3n3c2cc(-c2ccccc2)[n+]3C)cc1, the TGI (RPMI-8226 leukemia) is reported as 1.97 µM and > 100 µM, the TGI (HCT-116 colon) is reported as 3.65 µM and > 100 µM and the TGI (786-0 renal) is reported as 3.92 µM and > 100 µM. For the same compound, the TGI (UACC-62 melanoma) was 2.7 µM and > 100 µM, the TGI (EKVX NSCLC) was 7.21 µM and > 100 µM and the TGI (SW-620 colon) was 8.79 µM and > 100 µM. For the same compound, the TGI (SN12C renal) was 1.58 µM and > 100 µM and the TGI (K-562 leukemia) was 4.19 µM and > 100 µM.

In the case of NC1(C(=O)N[C@@H](CCO)c2ccc(Cl)cc2)CCN(c2ncnc3[nH]ccc23)CC1, the TGI (HS 578T breast) is reported as 1.21 µM [sample A, mean of 2 tests] and 18.2 µM [sample B, 1 test].

With CC1[C@@H]2CC=C3[C@H]4CCC5Cc6nc7c(nc6C[C@@]5(C)C4CC(=O)[C@]32CO[C@]12OC(C)(C)CC2O)CC1CC[C@@H]2C3=C[C@H]4O[C@@]5(O[C@@](C)(CO)C[C@@H]5O)C(C)[C@@]4(O)[C@]3(C)[C@@H](O)CC2[C@]1(C)C7 (some centres not stated) the TGI (SF-539 CNS) was 1.64 nM and 24.2 nM, the GI50 (OVCAR-8 ovarian) was 59.6 nM and 1.23 µM and the TGI (SNB-75 CNS) was 2.06 nM and 42.5 nM. The TGI (SNB-78 CNS) was 59 nM and 2.11 µM, the GI50 (NCI/ADR-RES ovarian) was 69.5 nM and 1.57 µM and the TGI (LOX IMVI melanoma) was 811 nM [1 test] and 20.5 nM [mean of 6 tests]. For the same compound, the TGI (MCF7 breast) was 437 nM [1 test] and 37.9 nM [mean of 4 tests], the GI50 (UO-31 renal) was 0.615 nM and 16.5 nM and the TGI (UO-31 renal) was 5.72 nM and 75.2 nM. For the same compound, the TGI (HOP-92 NSCLC) was 15.8 nM and 415 nM, the TGI (IGROV1 ovarian) was 215 nM and > 3.65 µM and the GI50 (CAKI-1 renal) was 1.54 nM and 30.2 nM. The TGI (CAKI-1 renal) was 124 nM and > 3.65 µM, the GI50 (HOP-18 NSCLC) was 72.4 nM and 2.93 µM and the TGI (NCI-H522 lung) was 9.91 nM and 141 nM. For the same compound, the TGI (HL-60(TB) leukemia) was 44.8 nM and 3.2 nM.

Cc1cnc(-c2ccc(-c3ccc(NC(=O)Nc4c(F)cc(F)cc4F)cc3F)c3c2C(=O)NC3)[nH]1 was tested, and the GI50 (SF-295 CNS) was 2.41 µM [sample A, 1 test] and 115 nM [sample B, mean of 2 tests], the GI50 (HOP-62 NSCLC) was 54.3 nM [sample A, 1 test] and 1.82 µM [sample B, mean of 2 tests] and the TGI (SR leukemia) was 578 nM [sample A, 1 test] and > 100 µM [sample B, 1 test].

For CCC(C)C1NC(=O)C(NC(=O)C(CC(C)C)N(C)C(=O)[C@@H]2CC(O)CN2C(=O)[C@H](C)O)C(C)OC(=O)[C@H](Cc2ccc(OC)cc2)N(C)C(=O)[C@@H]2CCCN2C(=O)[C@H](CC(C)C)NC(=O)C(C)C(=O)[C@H](C(C)C)OC(=O)CC1O (some centres not stated), the TGI (MCF7 breast) was 1.13 µM and > 100 µM and the TGI (MOLT-4 leukemia) was 1.22 µM and 95.5 nM.

For CCCCCCCCCC[C@H](O)[C@H]1CC[C@@H]([C@@H](O)CC[C@H](O)[C@@H]2CCC(CCCCCCC[C@@H](O)CC3=C[C@H](C)OC3=O)O2)O1 (some centres not stated), the TGI (MDA-MB-435) was 3.17 µM and 45.7 µM, the TGI (OVCAR-8 ovarian) was 3.99 µM and > 100 µM and the TGI (BT-549 breast) was 1.92 µM and 22.1 µM. The TGI (SW-620 colon) was 5.59 µM and > 100 µM, the TGI (U251 CNS) was 5.34 µM and > 100 µM and the TGI (SF-268 CNS) was 5.34 µM and 86.6 µM. The TGI (KM12 colon) was 3.24 µM and 47.9 µM.

Reference: PubChem BioAssay (NCI)
